Test results taken from the supplement of paper PMC3334620.
Whole data set: some 33,000 sequences, median “E-score (-0.5 to 0.5)” near -0.012, cut for the highest 2% near 0.29. Some of the results follow.

Molecular target: T1, Ybr033w (UniProt P38073)
T1 sequence: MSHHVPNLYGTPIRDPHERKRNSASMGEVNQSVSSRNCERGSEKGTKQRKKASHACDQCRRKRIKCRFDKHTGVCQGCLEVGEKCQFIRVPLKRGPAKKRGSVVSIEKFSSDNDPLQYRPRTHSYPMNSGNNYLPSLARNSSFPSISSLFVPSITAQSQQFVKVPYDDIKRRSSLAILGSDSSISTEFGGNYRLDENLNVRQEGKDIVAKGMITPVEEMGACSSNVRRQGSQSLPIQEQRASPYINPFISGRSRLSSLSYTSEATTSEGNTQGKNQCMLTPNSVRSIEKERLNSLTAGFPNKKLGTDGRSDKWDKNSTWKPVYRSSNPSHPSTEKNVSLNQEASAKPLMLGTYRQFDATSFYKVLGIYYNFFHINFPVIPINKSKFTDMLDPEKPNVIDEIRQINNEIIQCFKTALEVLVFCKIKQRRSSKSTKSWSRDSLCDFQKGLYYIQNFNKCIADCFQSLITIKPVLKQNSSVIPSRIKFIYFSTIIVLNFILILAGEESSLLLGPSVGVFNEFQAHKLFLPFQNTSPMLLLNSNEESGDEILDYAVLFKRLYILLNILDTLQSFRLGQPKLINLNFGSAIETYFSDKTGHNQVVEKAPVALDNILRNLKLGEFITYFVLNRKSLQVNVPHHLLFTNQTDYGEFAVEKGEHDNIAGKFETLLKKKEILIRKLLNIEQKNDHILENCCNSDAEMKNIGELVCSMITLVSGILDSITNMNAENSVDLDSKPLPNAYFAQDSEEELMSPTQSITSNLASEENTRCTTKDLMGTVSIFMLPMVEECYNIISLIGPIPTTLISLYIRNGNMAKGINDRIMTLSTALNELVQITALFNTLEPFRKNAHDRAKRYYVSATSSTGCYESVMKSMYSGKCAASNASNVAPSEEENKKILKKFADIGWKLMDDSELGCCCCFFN
Experiment: PBM E-score (8-mer binding enrichment) (E-score (-0.5 to 0.5)); higher = stronger / more preferred TF binding; most listed sequences are background and not binding sites
Conditions: protein concentration: 200 nM; construct: GST-full length
Experimental: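 Universal 'all 10-mer' protein binding microarrays (Agilent AMADID 015681) probed with GST-tagged S. cerevisiae TFs (full-length or DBD) made by in vitro transcription/translation (PURExpress), about 100-200 nM. Bound TF was detected with fluorescent anti-GST. Each ungapped 8-mer (which stands for itself and its reverse complement) is scored by the PBM enrichment score (E-score), a modified Wilcoxon-Mann-Whitney statistic from -0.5 to +0.5, computed with the Universal PBM Analysis Suite. Scale: above 0.35 generally sequence-specific binding.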

Row | Sequence | PBM E-score
1 | CAAGAAGG | 0.00143
2 | AATGTTCA | 0.0556
3 | GTGGACCA | -0.02
4 | CGTCGCGA | -0.0529
5 | ACCTGGCT | -0.0682
6 | AACATGAC | 0.116
7 | TCGGCTCA | -0.227
8 | GCCATGGA | -0.114
9 | GAGTACGA | -0.0231
10 | GCAGTATA | 0.115
11 | AGTCCATC | -0.0562
12 | TATCGGAA | 0.239
13 | CTAGCGAC | -0.00856
14 | AATCCCAG | -0.162
15 | GTGCCCTA | -0.239
16 | GTCGCTTA | -0.0249
17 | ATTTTATG | 0.186
18 | CTACGTGC | -0.201
19 | AGACATAA | 0.128
20 | GCAGAAGA | -0.00072
21 | CCAGTACG | 0.0255
22 | CCGTATAG | -0.0908
23 | GTCTTTAA | 0.184
24 | ACATAGCA | 0.0147
25 | TAGGAATA | 0.194

Row | Sequence | PBM E-score
26 | CTATTTAA | 0.022
27 | ACTGCTCG | 0.0244
28 | AGTCTGAG | -0.207
29 | ATCGCGGG | -0.0312
30 | AGTTAAGG | 0.031
31 | GCGGGGAA | -0.00618
32 | GAAGGCCC | -0.223
33 | CCTTCCCG | -0.177
34 | AGAAAAAG | 0.118
35 | CTGCCAAG | -0.14
36 | AGTCAGGA | -0.142
37 | TCGAGAAA | 0.171
38 | AGGGAAGC | -0.255
39 | TTCAAGAA | 0.296
40 | TCCTAGCA | -0.213
41 | CCGAATGC | 0.00659
42 | GGTTGTAA | 0.0581
43 | CGGGCCGA | -0.294
44 | AAGAGCGG | -0.0071
45 | AGAGCAAT | -0.151
46 | TCACCCGA | -0.08
47 | CACCTTTC | -0.0461
48 | ATATTTAA | 0.372
49 | GACATTGC | -0.0367
50 | CGGTACTC | -0.187

Row | Sequence | PBM E-score
51 | ATGGTCCC | -0.232
52 | GCATAAAC | 0.266
53 | AACATAGT | 0.234
54 | ATAGCTCA | 0.0239
55 | ATCCTGTC | 0.0019
56 | CGGGCCAA | -0.233
57 | CACTAAGA | 0.0394
58 | TCAGACGA | -0.115
59 | AAAAAGAC | 0.162
60 | AGCTGATA | 0.0261
61 | AAGAGGAC | -0.051
62 | CACATCAC | -0.0103
63 | CTAAGTAC | 0.046
64 | CGGTGTCC | -0.198
65 | TGCCCTAA | -0.156
66 | AAGATAAC | 0.0702
67 | ACTTTTTA | 0.242
68 | GCAGCGCC | -0.098
69 | ACGTAGCT | 0.0287
70 | GGCGTGTA | -0.0896
71 | ATCGTAAA | 0.122
72 | GCAACGCA | -0.217
73 | CTGGGTGA | 0.0117
74 | AATGGCGC | -0.104
75 | AAGGTGGA | -0.0199

Row | Sequence | PBM E-score
76 | CGGTAAAC | -0.0859
77 | ATGCCAAA | -0.0597
78 | CGATTACA | -0.0785
79 | AGACATCG | -0.221
80 | ATCCTGAA | 0.228
81 | CACAGCAA | 0.208
82 | ACTGCTAT | 0.0319
83 | GTCCCCGA | -0.131
84 | CGACTCAA | 0.145
85 | CGACGTAA | 0.0182
86 | ACCGGTAT | -0.0774
87 | GCGCAAGC | 0.0122
88 | ACACCAGC | -0.188
89 | ACGCTTAA | 0.0404
90 | TAGACTCA | 0.0118
91 | ACTCGGTC | 0.05
92 | TACCATCA | -0.0367
93 | ATAATAAA | 0.366
94 | AGGGGACC | -0.357
95 | CGCTTTGA | 0.0154
96 | ACTAGTCC | -0.11
97 | ATTAGTTG | 0.265
98 | GCCTACTA | 0.167
99 | CTAATACC | 0.0943
100 | AACTCGCG | 0.139

Row | Sequence | PBM E-score
101 | GGGTAAGA | -0.154
102 | AAAAACCT | 0.307
103 | CTGCCCGA | -0.19
104 | AAATCGGC | -0.158
105 | CGGTGACC | -0.24
106 | AGCAACCA | 0.0811
107 | AGTATTAG | 0.174
108 | AGGGCCTG | -0.306
109 | ATTGCCTG | 0.095
110 | GAACATTA | 0.232
111 | CACGGATG | -0.0223
112 | AACTGATG | -0.0152
113 | CCATCACA | -0.0678
114 | AAGCGCCC | -0.246
115 | AAAGGGTA | 0.0261
116 | CAAGGGGA | -0.125
117 | TCAAATCA | 0.192
118 | CGAGTCTA | -0.286
119 | CGGACAGC | -0.0522
120 | CCGAGAGA | -0.0112
121 | AGTTATAT | 0.199
122 | AACTCATA | 0.227
123 | ACGCGCGA | 0.0738
124 | GTACGAAA | 0.0675
125 | GAACTATA | 0.227

Row | Sequence | PBM E-score
126 | ACTCTAGG | -0.231
127 | ACTCACCT | -0.0796
128 | AAAGAGCA | 0.122
129 | ACAGAGTC | -0.176
130 | GTTACCAA | 0.133
131 | CGGGACAG | -0.0324
132 | AGCGCCAA | 0.026
133 | GAGTTTCC | 0.0638
134 | GTTGCTCA | -0.0343
135 | GTGCCAGA | -0.287
136 | GGTATGCA | -0.162
137 | CGGTATAC | -0.241
138 | AGAGGCCT | -0.203
139 | AAGGTTGC | -0.0626
140 | ATCGATGG | 0.0993
141 | CGCTTGGA | -0.0712
142 | CAGTATGC | -0.0666
143 | AGTGTAAA | 0.0244
144 | TATCTCGA | 0.0179
145 | GCCTCACC | -0.234
146 | GGCTCGAC | -0.1
147 | AAATCTAA | 0.215
148 | AGTTTTGA | 0.123
149 | ACTCCAAC | 0.017
150 | GCAGCAAA | -0.237

Row | Sequence | PBM E-score
151 | ACTCTAAT | 0.233
152 | GATCCTCC | -0.186
153 | GGGATTGA | -0.148
154 | CACGTGTC | -0.15
155 | GGGCCCAA | -0.167
156 | CGGGGGGC | -0.436
157 | CTCGGCGA | -0.103
158 | AAAGGAAA | 0.303
159 | ATGTAACA | 0.226
160 | GTGTTTCA | 0.0694
161 | AGGAAGGC | -0.17
162 | GCTATAAC | 0.0463
163 | GCCTGAAC | -0.214
164 | CTTCAGAA | -0.028
165 | CCCTACGC | -0.166
166 | CCCCACCC | 0.0112
167 | GGGCCACC | -0.197
168 | CAATGTCC | -0.0195
169 | ATCAGCCC | -0.027
170 | CCATATTC | 0.047
171 | ACCTTCGG | -0.0682
172 | AAGACAGG | 0.149
